Results on one molecule are retold here after patent US20060153833A1 (Genmab, published 2006).

This assay concerns the target T1, E1 E2 complexes (noncovalently associated heterodimers and disulfide-linked aggregates) from cells expressing … (Hepatitis C virus strain H (genotype 1a), UniProt P27958 192-383; P27958 384-746).
T1 construct: E1 is coprecipitated by the anti-E2 antibodies; also called E2/E1 complexes
In words: pulse-chase immunoprecipitation, reducing and non-reducing SDS-PAGE.

B1: HMAb 503 (antibody, V domains shown)
VH: QVQLQQWGAGLLKPSETLSLTCAVYGGSLSGYFWTWIRQSPGKGLEWIGESNYSGSTRYNPSLKSRVTISVDTSQNQFSLKLSSVTAADTAVYYCARGWAVDGMDVWGQGTTVTVSS
VL: SYELTQPPSVSVSPGQTARITCSGDALPKQYAYWYQQKPGQAPVLVIYKDNERPSGIPERFSGSRSGTTVTLTISGVQAEDEADYYCQSADSSGSSWVFGGGTKLTVL
notes: also called antibody 503; clone 503
For the molecule B1, the binding result is listed as “binds”.
